± gives the standard deviation of the averaged measurements. Whole data set: some 33,000 sequences, median “E-score (dimensionless, -0.5 to 0.5)” near -0.049, cut for the highest 2% near 0.37. Some of the results follow.
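Note: 200 nM protein in PBS on universal arrays averaged over duplicate arrays.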

This assay deals with T1, PmTbr T-box DNA-binding domain (GST fusion).
T1 sequence: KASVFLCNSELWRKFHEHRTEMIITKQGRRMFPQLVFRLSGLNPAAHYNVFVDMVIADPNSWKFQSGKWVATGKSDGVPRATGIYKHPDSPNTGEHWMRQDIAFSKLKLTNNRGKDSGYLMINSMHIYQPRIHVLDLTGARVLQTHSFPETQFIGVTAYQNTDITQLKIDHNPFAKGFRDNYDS
Put plainly: PBM E-score of 8-mer (E-score (dimensionless, -0.5 to 0.5)); Tbr is Tbrain of the sea star Patiria miniata (Pm) or the sea urchin Strongylocentrotus purpuratus (Sp); higher = stronger binding preference; most listed sequences are background and not binding sites. As to conditions: the construct has about 5 more residues each side. As to the method:
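Universal protein-binding microarray (Agilent AMADID 016060, 60-bp probes with a 35-bp variable region) incubated with 200 nM GST-fused Patiria miniata Tbr T-box DNA-binding domain (residues 272-466) in PBS pH 7.5. Scored for every ungapped 8-mer (given with its reverse complement) by the Universal PBM Analysis Suite as E-score (modified Wilcoxon-Mann-Whitney enrichment, range -0.5 to 0.5; >0.45 counts as bound) and Z-score of median probe intensity. Two replicate arrays (datasets 1 and 2).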
CCGCCTCG: the “PBM E-score of 8-mer” value is -0.00885 ± 0.021.
As for AGGTTGTA, the figure is 0.0566 ± 0.027; as for ACCCACGG, -0.132 ± 0.022.
As for ACGATATA, the figure is -0.174 ± 0.0053; as for CACAGAAG, 0.127 ± 0.012; as for CCTCCAAC, -0.0441 ± 0.032.
For TCATCCGA, the “PBM E-score of 8-mer” value was -0.203 ± 0.012.
Consider TAGCAGCA, for which the “PBM E-score of 8-mer” value is 0.031 ± 0.019.
The same measure for CCGACGCG: 0.164 ± 0.026; for TAATGGGA: -0.0306 ± 0.0075; for ATATAAGC: -0.204 ± 0.018.
In the case of ACATGCTC, the “PBM E-score of 8-mer” value was -0.0798 ± 0.051.
As for CCGTGCCA, the figure is 0.228 ± 0.041.
As for GGCAAAAC, the “PBM E-score of 8-mer” value is -0.016 ± 0.018.
The same measure for CACGAAAC: 0.127 ± 0.03; for GCAATACC: -0.0713 ± 0.099.
As for GCGACCTA, the figure is -0.0636 ± 0.051.
As for AGGACAAC, the figure is -0.174 ± 0.1; as for GCTGGTGA, 0.0996 ± 0.0097.
For the sequence CCTAAGCG, the “PBM E-score of 8-mer” value was -0.0363 ± 0.022.
As to GAAATTTA, the “PBM E-score of 8-mer” value is -0.13 ± 0.042.
As for ATAAAAGG, the figure is 0.04207 ± 2.8e-05; as for GGAAAGAC, 0.045 ± 0.021; as for TCTATTAA, -0.084 ± 0.023.
The same measure for AGTCCAAG: -0.366 ± 0.039; for GAGTCGGA: -0.263 ± 0.045.
As for GGTGCAAC, the figure is 0.299 ± 0.033; as for AGCTCGCG, 0.291 ± 0.015; as for ACGCCGAG, 0.0516 ± 0.0092.
Regarding AGGACGCG, the “PBM E-score of 8-mer” value was -0.0478 ± 0.068.
The same measure for CACGACCG: -0.0865 ± 0.01; for AAAAGACG: -0.115 ± 0.073.
Turning to ACGTCTGC, the “PBM E-score of 8-mer” value was -0.0774 ± 0.02.
The same measure for ACAAGTTA: 0.129 ± 0.0067.
As for CAGTAGAG, the figure is 0.0828 ± 0.0074.
For CTGGCAAG, the “PBM E-score of 8-mer” value is -0.0588 ± 0.035.
The same measure for AGCTTATG: -0.231 ± 0.017; for ATTATCTC: 0.074 ± 0.024; for TAAGGAAA: -0.1039 ± 0.00074.
The same measure for CGGTTCGA: -0.0167 ± 0.018; for AGAGCCGG: -0.259 ± 0.087.
The same measure for ATTGTTAC: 0.194 ± 0.057; for GGCTGGTA: -0.198 ± 0.088.
In the case of CCGATTCC, the “PBM E-score of 8-mer” value was -0.294 ± 0.067.
Consider CCATCGGG, for which the “PBM E-score of 8-mer” value was -0.0661 ± 0.0044.
As for AGGTGCAG, the figure is 0.307 ± 0.015; as for AGTTGTGC, 0.0449 ± 0.04.
The same measure for ATACTGGC: -0.143 ± 0.011; for GATCCACC: 0.0196 ± 0.009.
As for AACGTGGT, the figure is 0.0187 ± 0.012; as for GAATTCTC, 0.159 ± 0.056.
For AGAGCCCA, the “PBM E-score of 8-mer” value is -0.145 ± 0.028.
As for GAAAGCCC, the figure is -0.23 ± 0.092.
The same measure for ATGAAGAA: -0.0724 ± 0.011.
With GCTCATAC, the “PBM E-score of 8-mer” value is -0.037 ± 0.085.
As for ATCAAGCA, the figure is -0.105 ± 0.11; as for TATGACGA, -0.0839 ± 0.034; as for CTGCGGTC, -0.0962 ± 0.029.
AGTCTATG: the “PBM E-score of 8-mer” value is -0.314 ± 0.026.
The same measure for CCTTAAAA: -0.0561 ± 0.019; for ATCCATAG: -0.255 ± 0.025; for CCAGTATA: -0.0676 ± 0.025.
As for CCCTGGTC, the figure is -0.0307 ± 0.0028; as for CCCAATGC, -0.297 ± 0.0096.
The same measure for ACCTGAAT: 0.165 ± 0.043; for GCGCGGAC: 0.21 ± 0.056.
On to GTAATTTA, for which the “PBM E-score of 8-mer” value is -0.0571 ± 0.089.
The same measure for CGTTTTAA: 0.0535 ± 0.015; for ACCAAAGG: -0.0856 ± 0.047; for CTAACTCA: 0.0526 ± 0.011.
As for ATCGAACA, the figure is -0.0797 ± 0.051; as for CTAGATTC, 0.139 ± 0.039; as for CGGATGGC, -0.158 ± 0.021.
For the sequence ACATTTTA, the “PBM E-score of 8-mer” value came to 0.101 ± 0.12.
Turning to GCGTTCGA, the “PBM E-score of 8-mer” value was 0.0996 ± 0.078.
The same measure for ACTCCACA: 0.144 ± 0.064.
As to ATTCGGGC, the “PBM E-score of 8-mer” value was -0.0615 ± 0.091.
The same measure for CTACTCAC: 0.0932 ± 0.0048; for AACGGTTG: 0.0612 ± 0.024.
The same measure for TCCCTAAA: -0.0831 ± 0.026; for GAGTATAA: -0.0162 ± 0.085.
As for AGACGGAA, the “PBM E-score of 8-mer” value was -0.052 ± 0.0067.
Regarding ACGAATTA, the “PBM E-score of 8-mer” value is -0.0448 ± 0.09.
For the sequence AAAGTGAA, the “PBM E-score of 8-mer” value was -0.00138 ± 0.15.
As for AAGTGACT, the figure is 0.092 ± 0.006; as for CCTGGTGA, 0.101 ± 0.0051.

Values taken from the supplement of paper PMC4166925.
